According to PubChem BioAssay AID720708 (National Center for Advancing Translational Sciences (NCATS), 2013):
In all, about 360,000 compounds went through this assay and about 660 (0.18%) were called active. Inconclusive results, whose numbers are uncertain, are shown with a selection of clear calls. Calls come from the whole dose curve; as a rule, active = well fitted inhibition curve with a large enough effect; inconclusive = small, poorly fitted or top-dose-only effect; inactive = no such curve, though single readings can be large or run the other way. No potency is given beside an inconclusive call; the fits are too rough.

These molecules were tested against Rap guanine nucleotide exchange factor 4 (Homo sapiens) (UniProt Q8WZA2) (assay: qHTS for Antagonist of cAMP-regulated guanine nucleotide exchange factor 2 (EPAC2): primary screen). Details: EPAC2 GEF exchange of Rap1B-BODIPY-GDP, fluorescence; series mostly up to 114 µM.
Sequence of UniProt Q8WZA2 (Q8WZA2 whole entry, looked up): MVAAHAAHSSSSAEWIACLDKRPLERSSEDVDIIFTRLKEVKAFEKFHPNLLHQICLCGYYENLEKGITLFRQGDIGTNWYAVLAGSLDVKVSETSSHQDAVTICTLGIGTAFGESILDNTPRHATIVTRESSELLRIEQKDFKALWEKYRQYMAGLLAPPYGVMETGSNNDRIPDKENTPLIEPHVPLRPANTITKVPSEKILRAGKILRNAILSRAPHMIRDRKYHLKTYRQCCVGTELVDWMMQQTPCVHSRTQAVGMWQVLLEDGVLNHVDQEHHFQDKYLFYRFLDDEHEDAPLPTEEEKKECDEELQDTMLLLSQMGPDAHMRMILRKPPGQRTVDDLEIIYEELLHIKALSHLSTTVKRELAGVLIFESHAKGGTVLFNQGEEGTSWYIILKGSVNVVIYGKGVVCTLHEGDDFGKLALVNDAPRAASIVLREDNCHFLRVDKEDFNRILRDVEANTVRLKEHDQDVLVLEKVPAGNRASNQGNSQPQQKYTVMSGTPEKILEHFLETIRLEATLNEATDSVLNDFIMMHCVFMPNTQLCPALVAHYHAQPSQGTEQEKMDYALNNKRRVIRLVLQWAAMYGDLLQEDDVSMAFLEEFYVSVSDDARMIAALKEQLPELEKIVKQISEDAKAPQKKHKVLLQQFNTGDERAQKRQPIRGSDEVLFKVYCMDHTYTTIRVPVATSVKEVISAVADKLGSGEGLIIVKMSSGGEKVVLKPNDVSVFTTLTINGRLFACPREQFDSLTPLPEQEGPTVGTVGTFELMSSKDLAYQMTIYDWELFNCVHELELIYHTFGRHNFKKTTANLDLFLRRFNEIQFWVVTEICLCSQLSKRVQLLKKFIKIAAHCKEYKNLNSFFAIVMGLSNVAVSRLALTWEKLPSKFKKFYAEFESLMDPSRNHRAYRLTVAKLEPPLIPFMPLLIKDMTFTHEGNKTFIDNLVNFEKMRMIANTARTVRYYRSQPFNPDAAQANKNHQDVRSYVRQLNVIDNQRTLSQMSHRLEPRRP
Note: nearly all actives have a fitted effect of over 45% in size.
Potency is the fitted concentration of half-maximal effect; tags give direction and shape of the fitted curve.

Compound | Potency
CC(C)CCN1C(=O)c2ccc(C(=O)Nc3ccc(O)cc3C(=O)O)cc2C1=O | inconclusive [inhibitor, partial curve]
Cc1ccc(Nc2n[nH]c(=S)s2)c(C)c1 | inconclusive [inhibitor, full curve]
COc1ccc(OCCC(=O)OCC(=O)Nc2cccc(Br)c2)cc1 | inconclusive [inhibitor, single point]
Cc1cc(C)c(S(=O)(=O)NCCc2ccccc2)c(C)c1 | inconclusive [inhibitor, partial curve]
Cc1cccc(Cn2c(=O)oc3ccc(C)cc32)c1 | active: 79.4 µM
CCCCCCCCN1C(=O)[C@H](CC(=O)N2CCN(C(=O)c3ccco3)CC2)C[C@@]2(C(=O)OC)CC(C)(C)CC=C12 | inconclusive [inhibitor, full curve, poor fit]
COc1cc2c(c(OC)c1OC)C(c1ccc(C)cc1)CC(=O)O2 (stereo not given) | inconclusive [inhibitor, full curve]
Cc1cc(C(=O)Cn2nc(C(=O)O)c3ccccc3c2=O)c(C)n1-c1cccc(C(F)(F)F)c1 | inconclusive [inhibitor, full curve]
Cc1ccc(NC(=O)CN2CCCC2c2cccn2C)c(Br)c1 (stereo not given) | inconclusive [inhibitor, partial curve]
CCOC(=O)C1(C)CCCN(C(=O)c2cccnc2)C1 (stereo not given) | inactive
Oc1c(Br)cc(Br)cc1/C=N/c1nccs1 | inconclusive [inhibitor, partial curve]
CCN1C(=O)/C(=C/C=C2/Sc3ccccc3N2CCO)SC1=S | inactive
Cc1ccc(C(c2nnnn2C(C)(C)C)N(Cc2ccco2)Cc2cccs2)cc1 (stereo not given) | inactive
CCOC(=O)c1c(-c2ccccc2Cl)csc1NC(=O)CSc1nc(C)cc(=O)[nH]1 | inconclusive [inhibitor, single point]
O=C(NC1CCN(Cc2ccc(Cl)cc2Cl)CC1)c1ccccc1 | inactive
CC(=Cc1cccs1)C(=O)c1ccccc1 | inconclusive [inhibitor, partial curve]
CCOc1cnc(-c2c(-c3c(Cl)cccc3Cl)noc2C)o1 | inconclusive [inhibitor, full curve]
CC(C)(C)N(Cc1ccccc1)C(=O)CCc1ccccc1 | inconclusive [inhibitor, partial curve]
NNc1nc2c(Cl)cccc2s1 | inconclusive [inhibitor, partial curve]
Cc1nc2c(C(=O)NCc3ccc(F)cc3)c[nH]n2c(=O)c1Cl | inconclusive [inhibitor, partial curve]
